In PubChem BioAssay (Tox21):
Several values for one entry are separate records, joined by “and”; a condition that tells them apart may be missing. Equal entries are not always repeated. Inconclusive means that the source gave no clear call. Such entries were picked first, then a sample of the others. For some assays here: Potencies of inconclusive entries are doubtful fits and often do not repeat. Some structures have more than one record in an assay (separate samples or runs), and their calls can disagree. Activity calls are given as the source filed them. Unless noted, the call rests on the fitted dose curve; in most records, active means well fitted curve in the direction sought with a large enough effect in the repeat runs; inconclusive means weak or mixed curves; inactive means no such curve, though single readings can be large; an effect the other way counts as inactive or inconclusive.

Columns and labels:
[1] = qHTS assay to identify small molecule antagonists of the retinoic acid receptor (RAR) signaling pathway (AID 1159552; further: potency means the concentration at half of the fitted maximal effect; nearly all actives have a fitted effect of over 50% in size)
Outline: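 Luminescent RARE reporter read-out in C3RL4 cells: 6 hr co-treatment at 37 C of test compounds with retinol at 1 uM final. Cells plated overnight beforehand; luciferase reagent incubated 30 min at room temperature before reading.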

[2] = qHTS assay to identify small molecule agonists of the retinoic acid receptor (RAR) signaling pathway (AID 1159553); details: C3RL4 RARE luciferase reporter, agonist, 6 h; activation: at 73.3 µM (top of the series) unless noted; further: potency means the concentration at half of the fitted maximal effect
Outline: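 Agonist activity was scored in C3RL4 cells bearing a retinoic acid response element luciferase construct. Cells were treated with compounds for 6 hr at 37 C, and luciferase signal was measured as luminescence.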

[3] = qHTS assay to identify small molecule antagonists of the estrogen related receptor (ERR) signaling pathway from Tox21 library - cell viability counter screen (AID 1224834); further: potency means the concentration at half of the fitted maximal effect; nearly all actives have a fitted effect of over 30% in size
Outline: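 Cytotoxicity of test substances is gauged in the same ERR cells used for the antagonist screen, after 17.5 h of compound treatment at 37 C, by CellTiter-Fluor fluorescence measured after 30 min.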

[4] = qHTS assay to identify small molecule agonists of the constitutive androstane receptor (CAR) signaling pathway - cell viability counter screen (AID 1224836); further: potency means the concentration at half of the fitted maximal effect; nearly all actives have a fitted effect of over 45% in size
Outline: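 Cell viability multiplexed with the CAR agonist screen: CellTiter-Fluor fluorescence after 23 hr at 37 C. HepG2-CYP2B6-hCAR cells got compounds at 15 concentrations with PK11195 at 0.75 uM final.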

[5] = target: Nuclear receptor subfamily 1 group I member 3 (Homo sapiens) (UniProt Q14994); assay: qHTS assay to identify small molecule antagonists of the constitutive androstane receptor (CAR) signaling pathway (AID 1224838); further: potency means the concentration at half of the fitted maximal effect; nearly all actives have a fitted effect of over 40% in size
Outline: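 Compounds were titrated across 15 concentrations onto HepG2 cells double-stably expressing hCAR and a CYP2B6-2.2kb reporter, together with 50 nM CITCO (final). After 24 h at 37 C, luciferase activity was measured by luminescence.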

[6] = qHTS assay to identify small molecule antagonists of the estrogen related receptor signaling pathway with the pleiotropic PPARgamma coactivator (PGC) from Tox21 10K library - cell viability counter screen (AID 1224840; active means well fitted cell-killing curve with a large enough effect in the repeat runs, not every such curve was filed as active; inconclusive means weak or mixed curves, or effect the other way; inactive means no such curve, though single readings can be large or run the other way; further: potency means the concentration at half of the fitted maximal effect; nearly all actives have a fitted effect of over 40% in size)
Outline: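 Step one, plate 2,000 PGC/ERR cells per well; step two, incubate 6 h at 37 C/5% CO2; step three, pin-transfer compounds; step four, incubate 17.5 h; step five, add CellTiter-Fluor and read fluorescence after 30 min.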

[7] = target: Thyrotropin receptor (Homo sapiens) (UniProt P16473); assay: qHTS assay to identify small molecule agonists of the thyroid stimulating hormone receptor (TSHR) signaling pathway (AID 1224843; calls by dose curve; further: nearly all actives have a fitted effect of over 45% in size; further: potency means the concentration at half of the fitted maximal effect; on activation: on the % scale 0 is the no-effect control and ±100 the full control effect); details: TSHR-HEK293 cells, cAMP HTRF, agonist mode, 30 min; activation: at 92.4 µM (top of the series) unless noted
Outline: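 HEK293 cells stably bearing the thyrotropin receptor were plated at 800 cells/well and challenged with compound (30 min, RT). Accumulated cAMP was quantified via cAMP-d2 competing for cryptate-tagged antibody.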

[8] = qHTS assay to identify small molecule antagonists of the estrogen related receptor (ERR) signaling pathway - cell viability counter screen (AID 1224818);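 further: potency means the concentration at half of the fitted maximal effect; viability measured after 17.5 h of compound exposure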
Outline: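 Cells carrying the ERR pathway reporter were seeded and incubated for 6 hours before compound addition. After a 17.5-hour exposure at 37 C, live-cell protease activity was measured by CellTiter-Fluor fluorescence following 30 minutes of incubation.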

[9] = qHTS assay to identify small molecule antagonists of the estrogen related receptor (ERR) signaling pathway (AID 1224819; further: potency means the concentration at half of the fitted maximal effect; nearly all actives have a fitted effect of over 50% in size)
Outline: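 Compounds dissolved in DMSO were pin-transferred onto ERR cells that had been plated 6 h earlier, and cells were then incubated 18 h at 37 C; signal was luciferase luminescence via One-Glo.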

[10] = test system: estrogen-related receptor alpha (ERRalpha) with PGC-1alpha coactivator, human; assay: qHTS assay to identify small molecule antagonists of the estrogen related receptor signaling pathway with the pleiotropic PPARgamma coactivator (PGC) (AID 1224821; calls by dose curve;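 further: on the % scale 0 is the no-effect control and ±100 the full control effect; lower luminescence signal means antagonism of PGC/ERR signalling; nearly all actives have a fitted effect of over 50% in size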)
Outline: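 Quantitative HTS for antagonism: PGC/ERR cells received compounds after 6 h attachment and were incubated 18 h at 37 C, with luminescence (One-Glo) as the endpoint.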

[11] = qHTS assay to identify small molecule antagonists of the estrogen related receptor signaling pathway with the pleiotropic PPARgamma coactivator (PGC) cell viability counter screen (AID 1224822;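 further: potency means the concentration at half of the fitted maximal effect; viability read after 17.5 h compound exposure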)
Outline: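 Seed PGC/ERR cells (2,000/well); incubate 6 h at 37 C/5% CO2; pin-transfer compounds in DMSO; incubate 17.5 h at 37 C; add CellTiter-Fluor; after 30 min read fluorescence.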

[12] = qHTS assay to identify small molecule antagonists of the constitutive androstane receptor (CAR) signaling pathway - cell viability counter screen (AID 1224837); further: potency means the concentration at half of the fitted maximal effect; nearly all actives have a fitted effect of over 45% in size
Outline: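 Multiplexed cytotoxicity read-out for the CAR antagonist screen: double-stable HepG2-CYP2B6-hCAR cells co-treated with 50 nM CITCO (final) and compound over 15 concentrations, incubated 23 hr, then assessed by CellTiter-Fluor fluorescence.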

[13] = qHTS assay to identify small molecule antagonists of the estrogen related receptor signaling pathway with the pleiotropic PPARgamma coactivator (PGC) from Tox21 10K library (AID 1224841; call rule not given here; further: potency means the concentration at half of the fitted maximal effect; actives are mostly falling curves and most rising ones were filed inactive; nearly all actives have a fitted effect of over 50% in size)
Outline: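 Antagonism in this quantitative HTS is taken from loss of luciferase signal in PGC/ERR cells. Cells (2,000/well) are treated with compounds in DMSO after a 6 h settling period and read by One-Glo luminescence after 18 h.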

[14] = target: Nuclear receptor subfamily 1 group I member 3 (Homo sapiens) (UniProt Q14994); assay: qHTS assay to identify small molecule agonists of the constitutive androstane receptor (CAR) signaling pathway (AID 1224839); further: potency means the concentration at half of the fitted maximal effect; nearly all actives have a fitted effect of over 15% in size
Outline: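 Luminescent ONE-Glo read-out after 24 hr, 37 C exposure of double-stable HepG2-CYP2B6-hCAR reporter cells to a 15-point compound series, in the presence of 0.75 uM PK11195 (final).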

[15] = qHTS assay to identify small molecule agonists of the hypoxia (HIF-1) signaling pathway - cell viability counter screen (AID 1224844; calls by dose curve)
Outline: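 Tox21 10K compounds were added to HRE-bla ME-180 cells (0.5% dialyzed FBS) and incubated 17 hrs at 37C; ATP-based CellTiter-Glo luminescence then reported cell viability in the same wells.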
Tags describe the fitted curve by direction and shape or compound fluorescence and quenching.

Chain of UniProt P16473 (P16473 whole entry, looked up): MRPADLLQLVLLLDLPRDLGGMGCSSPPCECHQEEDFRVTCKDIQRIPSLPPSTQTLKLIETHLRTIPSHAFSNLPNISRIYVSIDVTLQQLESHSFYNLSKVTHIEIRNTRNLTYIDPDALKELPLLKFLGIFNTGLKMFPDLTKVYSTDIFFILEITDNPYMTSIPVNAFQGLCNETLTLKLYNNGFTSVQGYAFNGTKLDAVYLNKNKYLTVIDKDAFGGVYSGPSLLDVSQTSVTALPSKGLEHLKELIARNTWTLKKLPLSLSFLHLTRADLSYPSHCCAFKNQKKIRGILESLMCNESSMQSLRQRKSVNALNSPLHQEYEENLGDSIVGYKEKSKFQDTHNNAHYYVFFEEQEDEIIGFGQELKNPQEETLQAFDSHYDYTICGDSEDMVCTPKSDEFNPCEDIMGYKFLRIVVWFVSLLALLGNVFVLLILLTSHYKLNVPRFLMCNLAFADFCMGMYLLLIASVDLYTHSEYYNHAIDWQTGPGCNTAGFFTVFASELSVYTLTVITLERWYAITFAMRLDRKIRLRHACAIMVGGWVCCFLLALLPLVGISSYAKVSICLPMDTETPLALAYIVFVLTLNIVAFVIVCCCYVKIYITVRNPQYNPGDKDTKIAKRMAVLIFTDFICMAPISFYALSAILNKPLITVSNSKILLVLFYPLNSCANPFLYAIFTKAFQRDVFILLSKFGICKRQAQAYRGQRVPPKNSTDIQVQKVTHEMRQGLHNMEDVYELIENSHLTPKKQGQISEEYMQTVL
Chain of UniProt Q14994 (Q14994 whole entry, looked up): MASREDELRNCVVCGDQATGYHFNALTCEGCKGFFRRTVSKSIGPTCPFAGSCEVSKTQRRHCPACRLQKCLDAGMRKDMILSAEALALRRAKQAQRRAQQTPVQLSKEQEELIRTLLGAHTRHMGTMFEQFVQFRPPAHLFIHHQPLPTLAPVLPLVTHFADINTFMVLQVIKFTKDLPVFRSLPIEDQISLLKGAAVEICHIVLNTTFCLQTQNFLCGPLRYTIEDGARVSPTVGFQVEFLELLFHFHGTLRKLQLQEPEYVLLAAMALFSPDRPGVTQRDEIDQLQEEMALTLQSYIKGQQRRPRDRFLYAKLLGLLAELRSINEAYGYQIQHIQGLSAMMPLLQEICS

Compound: CCCOc1sc(C(=O)N2CCC(c3cc(CN)ccc3F)CC2)c(C)c1Br
- Potency [1]: active: 39.7 µM
- Potency [2]: inconclusive: 62.8 µM [inhibitor, partial curve]
- Potency [3]: active: 49.9 µM
- Potency [4]: inconclusive: 62.8 µM [cytotoxic, single point]
- Potency [5]: inconclusive: 70.5 µM [inhibitor, single point]
- Potency [6]: active: 56 µM
- Potency [7]: inconclusive: 70.5 µM [inhibitor, single point]

Compound: CC1=C(/C=C/C(C)=C/C=C/C(C)=C/C(=O)Nc2ccc(O)cc2)C(C)(C)CCC1
- Potency [1]: active: 29.8 µM
- Potency [2]: active: 4.98 µM and active: 2.66 µM
- Potency [8]: inconclusive: 15.5 µM [cytotoxic]
- Potency [9]: inconclusive: 7.08 µM [inhibitor]
- Potency [10]: inactive
- Potency [11]: active: 13.9 µM
- Potency [4]: inconclusive: 44.4 µM [cytotoxic, partial curve] and active: 23.7 µM
- Potency [12]: inconclusive: 31.4 µM [cytotoxic, partial curve]
- Potency [5]: inconclusive: 62.7 µM [inhibitor] and inconclusive: 33.5 µM [inhibitor]
- Potency [13]: inconclusive: 21.1 µM [falling, partial curve, poor fit]
- Potency [7]: active: 22.2 µM and active: 11.9 µM

Compound: CCOC(=O)N1CCC(=C2c3ccc(Cl)cc3CCc3cccnc32)CC1
- Potency [1]: inconclusive: 68.6 µM [inhibitor, single point]
- Potency [2]: inconclusive: 68.6 µM [inhibitor, partial curve, poor fit]
- Potency [9]: inconclusive: 20.3 µM [inhibitor]
- Potency [12]: inconclusive: 61.1 µM [cytotoxic] and inconclusive: 26.6 µM [cytotoxic, partial curve, poor fit]
- Potency [14]: inconclusive: 30.6 µM [activator, partial curve] and inconclusive: 23.7 µM [activator, partial curve]
- Potency [6]: inconclusive: 29.8 µM [cytotoxic, partial curve]
- Potency [15]: active: 54.9 µM

Compound: CC(C)(C)c1ccc(O)c(O)c1
- Potency [1]: inconclusive: 79.5 µM [inhibitor, single point] and inconclusive: 48.6 µM [inhibitor, single point]
- Potency [2]: inconclusive: 56.3 µM [inhibitor, single point] and inconclusive: 24.3 µM [inhibitor, full curve]
- activation [7]: inconclusive: 9.29% and inconclusive: 16.1%
- Potency [15]: inconclusive: 49 µM [cytotoxic, single point]
